Reference: the supplement of paper PMC5895741

B1: MS2 coat protein; the commonest letter at each place (parent)
chain: MASNFTQFVLVDNGGTGDVTVAPSNFANGVAEWISSNSRSQAYKVTCSVRQSSAQNRKYTIKVEVPKVATQTVGGVELPVAAWRSYLNMELTIPIFATNSDCELIVKAMQGLLKDGNPIPSAIAANSGIY
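Further: counts from Illumina MiSeq reads, cDNA of packaged RNA versus plasmid DNA taken before selection, each replicate independent from library construction onward, expression induced with 0.1% arabinose.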

Variants of: B1
Assay: apparent fitness score (VLP assembly selection enrichment vs plasmid library) (log10 ratio); higher = better expression / assembly into well-formed VLPs
In the case of A82Q, the “apparent fitness score (log10)” value is reported as -1.6.
For A82W, the “apparent fitness score (log10)” value was -1.2.
With T16C the “apparent fitness score (log10)” value was 0.304.
With T16E the “apparent fitness score (log10)” value was -0.728.
With T16F the “apparent fitness score (log10)” value was 0.185.
For L10E, the “apparent fitness score (log10)” value was -1.28.
With L10S the “apparent fitness score (log10)” value was -1.69.
For V76I, the “apparent fitness score (log10)” value was 0.162.
For V76H, the “apparent fitness score (log10)” value was -0.263.
In the case of K67N, the “apparent fitness score (log10)” value is reported as -0.442.
For K67M, the “apparent fitness score (log10)” value was -0.739.
In the case of S35P, the “apparent fitness score (log10)” value is reported as less than -4.
In the case of S35I, the “apparent fitness score (log10)” value is reported as less than -4.
In the case of V49F, the “apparent fitness score (log10)” value is reported as -0.832.
For S48K, the “apparent fitness score (log10)” value was 0.37.
For K107N, the “apparent fitness score (log10)” value was -0.0255.
In the case of R57Y, the “apparent fitness score (log10)” value is reported as 0.325.
With A122W the “apparent fitness score (log10)” value was less than -4.
In the case of A122Q, the “apparent fitness score (log10)” value is reported as less than -4.
For R39M, the “apparent fitness score (log10)” value was less than -4.
With R39E the “apparent fitness score (log10)” value was -1.2.
For R39K, the “apparent fitness score (log10)” value was -0.639.
For A54F, the “apparent fitness score (log10)” value was -1.39.
In the case of Y59M, the “apparent fitness score (log10)” value is reported as -1.29.
With V45P the “apparent fitness score (log10)” value was less than -4.
In the case of N37I, the “apparent fitness score (log10)” value is reported as less than -4.
In the case of N37P, the “apparent fitness score (log10)” value is reported as -0.39.
With N37Y the “apparent fitness score (log10)” value was less than -4.
With Q55R the “apparent fitness score (log10)” value was 0.452.
In the case of L78M, the “apparent fitness score (log10)” value is reported as -0.765.
For M109Q, the “apparent fitness score (log10)” value was -1.29.
With M109Y the “apparent fitness score (log10)” value was -1.03.
In the case of W83H, the “apparent fitness score (log10)” value is reported as less than -4.
In the case of E103P, the “apparent fitness score (log10)” value is reported as less than -4.
For E103M, the “apparent fitness score (log10)” value was 0.648.
In the case of S24V, the “apparent fitness score (log10)” value is reported as -1.87.
With S24L the “apparent fitness score (log10)” value was less than -4.
For S24M, the “apparent fitness score (log10)” value was less than -4.
In the case of N56P, the “apparent fitness score (log10)” value is reported as -1.91.
In the case of S40P, the “apparent fitness score (log10)” value is reported as -1.41.
For S40Y, the “apparent fitness score (log10)” value was less than -4.
In the case of S40E, the “apparent fitness score (log10)” value is reported as less than -4.
With V65L the “apparent fitness score (log10)” value was -0.6.
In the case of M89L, the “apparent fitness score (log10)” value is reported as 0.7.
In the case of M89P, the “apparent fitness score (log10)” value is reported as -1.21.
In the case of S127V, the “apparent fitness score (log10)” value is reported as 0.177.
In the case of S127Q, the “apparent fitness score (log10)” value is reported as less than -4.
With I95K the “apparent fitness score (log10)” value was -0.634.
For I95F, the “apparent fitness score (log10)” value was -0.572.
In the case of F96G, the “apparent fitness score (log10)” value is reported as -1.48.
In the case of G74N, the “apparent fitness score (log10)” value is reported as 0.541.
For G74K, the “apparent fitness score (log10)” value was 0.23.
In the case of Q110C, the “apparent fitness score (log10)” value is reported as -1.03.
In the case of Q110R, the “apparent fitness score (log10)” value is reported as 0.54.
With Q110F the “apparent fitness score (log10)” value was -1.34.
For Q110V, the “apparent fitness score (log10)” value was -0.521.
With D101W the “apparent fitness score (log10)” value was -1.14.
For D101N, the “apparent fitness score (log10)” value was -1.04.
With R50K the “apparent fitness score (log10)” value was 1.02.
In the case of R50I, the “apparent fitness score (log10)” value is reported as -0.0555.
With L112K the “apparent fitness score (log10)” value was less than -4.
In the case of L112N, the “apparent fitness score (log10)” value is reported as -0.925.
For G17L, the “apparent fitness score (log10)” value was -1.81.
For C47G, the “apparent fitness score (log10)” value was -0.895.
With C47Y the “apparent fitness score (log10)” value was 0.00982.
With S121N the “apparent fitness score (log10)” value was -0.418.
With S121R the “apparent fitness score (log10)” value was 0.29.
For N25M, the “apparent fitness score (log10)” value was -0.309.
For N25D, the “apparent fitness score (log10)” value was 0.782.
With N25R the “apparent fitness score (log10)” value was less than -4.
With G116D the “apparent fitness score (log10)” value was -0.668.
For N88S, the “apparent fitness score (log10)” value was 0.672.
For N88G, the “apparent fitness score (log10)” value was 0.16.
In the case of N117L, the “apparent fitness score (log10)” value is reported as -0.911.
For T60F, the “apparent fitness score (log10)” value was 0.467.
With N4T the “apparent fitness score (log10)” value was 0.827.
With A108E the “apparent fitness score (log10)” value was -1.56.
With V73E the “apparent fitness score (log10)” value was -0.0769.
For T92D, the “apparent fitness score (log10)” value was -0.11.
In the case of T92K, the “apparent fitness score (log10)” value is reported as 1.01.
With T92S the “apparent fitness score (log10)” value was 0.596.
With Q41C the “apparent fitness score (log10)” value was 0.778.
With V9C the “apparent fitness score (log10)” value was less than -4.
With V30W the “apparent fitness score (log10)” value was less than -4.
With V30F the “apparent fitness score (log10)” value was less than -4.
With V30C the “apparent fitness score (log10)” value was less than -4.
With V30T the “apparent fitness score (log10)” value was -0.542.
With G75Y the “apparent fitness score (log10)” value was -1.04.
For S52N, the “apparent fitness score (log10)” value was less than -4.
For G111S, the “apparent fitness score (log10)” value was -1.38.
In the case of G111M, the “apparent fitness score (log10)” value is reported as less than -4.
For G111W, the “apparent fitness score (log10)” value was less than -4.
In the case of L104A, the “apparent fitness score (log10)” value is reported as -0.151.
For L104N, the “apparent fitness score (log10)” value was 0.286.
For L104P, the “apparent fitness score (log10)” value was -0.267.
For L104W, the “apparent fitness score (log10)” value was 0.479.
With L104H the “apparent fitness score (log10)” value was 0.482.
With W33E the “apparent fitness score (log10)” value was less than -4.
In the case of N99G, the “apparent fitness score (log10)” value is reported as -0.651.
In the case of N99K, the “apparent fitness score (log10)” value is reported as -1.12.
With N99Q the “apparent fitness score (log10)” value was less than -4.
In the case of E77Y, the “apparent fitness score (log10)” value is reported as 0.0581.
For P120G, the “apparent fitness score (log10)” value was less than -4.
With P120Q the “apparent fitness score (log10)” value was less than -4.
For P120T, the “apparent fitness score (log10)” value was less than -4.
With T6I the “apparent fitness score (log10)” value was 0.802.
With P118R the “apparent fitness score (log10)” value was -1.41.
With P118L the “apparent fitness score (log10)” value was 0.427.
In the case of P118E, the “apparent fitness score (log10)” value is reported as less than -4.
With P66F the “apparent fitness score (log10)” value was less than -4.
In the case of P66E, the “apparent fitness score (log10)” value is reported as -0.927.
In the case of P66V, the “apparent fitness score (log10)” value is reported as -1.2.
In the case of I93P, the “apparent fitness score (log10)” value is reported as -0.721.
With I93A the “apparent fitness score (log10)” value was -1.52.
For N13D, the “apparent fitness score (log10)” value was 0.113.
In the case of N13T, the “apparent fitness score (log10)” value is reported as -0.681.
With N13Q the “apparent fitness score (log10)” value was 0.235.
For D12Q, the “apparent fitness score (log10)” value was -0.911.
For T20C, the “apparent fitness score (log10)” value was 0.773.
For T20R, the “apparent fitness score (log10)” value was 0.892.
For T20N, the “apparent fitness score (log10)” value was 0.958.
With N28F the “apparent fitness score (log10)” value was -0.544.
For N28Q, the “apparent fitness score (log10)” value was less than -4.
In the case of N28V, the “apparent fitness score (log10)” value is reported as less than -4.
With A124N the “apparent fitness score (log10)” value was less than -4.
In the case of S100N, the “apparent fitness score (log10)” value is reported as 0.648.
With S100I the “apparent fitness score (log10)” value was 0.00398.
For I34A, the “apparent fitness score (log10)” value was 0.725.
For K58P, the “apparent fitness score (log10)” value was -0.985.
With K58F the “apparent fitness score (log10)” value was -2.18.
With G14W the “apparent fitness score (log10)” value was less than -4.
In the case of T46P, the “apparent fitness score (log10)” value is reported as less than -4.
For A125M, the “apparent fitness score (log10)” value was 1.22.
For A125H, the “apparent fitness score (log10)” value was 0.643.
With T70H the “apparent fitness score (log10)” value was -0.859.
In the case of V80Q, the “apparent fitness score (log10)” value is reported as -0.221.
In the case of V80H, the “apparent fitness score (log10)” value is reported as 0.21.
For V21Y, the “apparent fitness score (log10)” value was less than -4.
In the case of V11K, the “apparent fitness score (log10)” value is reported as -1.1.
With S85C the “apparent fitness score (log10)” value was 0.0724.
With S85M the “apparent fitness score (log10)” value was -0.676.
For F26K, the “apparent fitness score (log10)” value was 0.355.
For G128W, the “apparent fitness score (log10)” value was less than -4.
For P94Q, the “apparent fitness score (log10)” value was -0.698.
With P94N the “apparent fitness score (log10)” value was -1.09.
With N126G the “apparent fitness score (log10)” value was -1.44.
For N126E, the “apparent fitness score (log10)” value was less than -4.
For N126H, the “apparent fitness score (log10)” value was less than -4.
For A81C, the “apparent fitness score (log10)” value was less than -4.
For A81Y, the “apparent fitness score (log10)” value was -1.52.
In the case of A81Q, the “apparent fitness score (log10)” value is reported as less than -4.
With Y86L the “apparent fitness score (log10)” value was -0.769.
For S3D, the “apparent fitness score (log10)” value was -0.61.
With C102H the “apparent fitness score (log10)” value was -1.32.
For C102S, the “apparent fitness score (log10)” value was -1.65.
With E90L the “apparent fitness score (log10)” value was 0.546.
With E90I the “apparent fitness score (log10)” value was 0.838.
With K44R the “apparent fitness score (log10)” value was -0.195.
For K44F, the “apparent fitness score (log10)” value was -0.00448.
With D18S the “apparent fitness score (log10)” value was -0.963.
For K114G, the “apparent fitness score (log10)” value was -0.76.
For K114R, the “apparent fitness score (log10)” value was 0.737.
With L87D the “apparent fitness score (log10)” value was -0.597.
With P23C the “apparent fitness score (log10)” value was -0.786.
In the case of P23E, the “apparent fitness score (log10)” value is reported as -1.32.
In the case of Q7W, the “apparent fitness score (log10)” value is reported as less than -4.
With I119A the “apparent fitness score (log10)” value was -1.33.
